Results on two substances are retold here after patent US20100190716A1, “USE OF A PLATELET FIBRINOGEN RECEPTOR HEXAPEPTIDE ANTAGONIST AND ALPHA-ENDORPHIN AS THERAPEUTIC AGENTS” (priority 2007, published 2010).

Where no end group is shown, it is not given here. [ ]: non-standard residue; d: D form. Hyp = O=C(O)[C@@H]1C[C@@H](O)CN1

For the experiment, the system named is RAW 264.7 (Mouse leukaemic monocyte macrophage cell line) cells. The experiment in a line: Phagocytosis assay (Fluorescein-labeled Escherichia coli, flow cytometry). The experiment is classed as cell-based. As to conditions: 10 micrograms per ml.

Consider PS[Hyp]GDW-OH [peptide 1], for which the “increase on the phagocytic activity of murine macrophages” value turned out to be 22.9%.

In the case of “Tyr-Gly-Gly-Phe-Met-Thr-Ser-Glu-Lys-Ser-Gln-Thr-Pro-Leu-Val-Thr-OH (YGGFMTSEKSQTPLVT-OH) [peptide 2, Alpha-Endorphin]”, the “increase on the phagocytic activity of murine macrophages” value worked out at 11.4%.
